Reference: PubChem BioAssay AID2546 (National Center for Advancing Translational Sciences (NCATS), 2010)
Among all 310,000 compounds or so, about 11,000 (3.5%) were called active. Inconclusive means that the source gave no clear call. Such entries were picked first, then a sample of the others. Calls follow the shape of the dose curve; as a rule, active = well fitted inhibition curve with a large enough effect; inconclusive = small, poorly fitted or top-dose-only effect, or effect the other way; inactive = flat fitted curve, though single readings scatter. No potency is given beside an inconclusive call; the fits are too rough.

assay: VP16 counterscreen qHTS for inhibitors of ROR gamma transcriptional activity; details: Drosophila S2 Gal4-VP16 UAS-luciferase, luminescence, 20 h; activity, negative = inhibition: at 53.6 µM (top of the series);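 also: Gal4-VP16 expression switched on by copper sulfate through the metallothionein promoter; nearly all actives have a fitted effect of over 50% in size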
% is scaled to controls: 0 for no effect and ±100 for the full control effect; potency is read from the fitted curve at half-maximal effect; tags tell the direction and shape of the fitted curve.

| Structure (SMILES) | Potency | activity, negative = inhibition |
| --- | --- | --- |
| CCOC(=O)C1CCCN(C(=O)c2cc(-c3ccc(C)cc3)nc3ccccc23)C1 (stereo unspecified) | inconclusive [inhibitor, single point] |  |
| Cc1ccc(C2C(C(=O)c3cc4ccccc4o3)=C(O)C(=O)N2CCN2CCOCC2)o1 (stereo unspecified) | inconclusive [activator, partial curve] |  |
| CCOc1ccc(/C=N/NC(=O)c2cc3ccccc3cc2OC)cc1 | inconclusive [inhibitor, single point] |  |
| O=[N+]([O-])c1cc(Cl)ccc1NCCNc1ncc(C(F)(F)F)cc1Cl | inconclusive [inhibitor, partial curve, poor fit] |  |
| CC(C)N(C(=S)NCc1ccccc1)C(C)C | active: 11.2 µM |  |
| COc1ccc(C(=O)N/N=C/c2ccc3cccc(O)c3n2)cc1 | active: 3.98 µM |  |
| Oc1ccc(Nc2nc(N3CCCC3)c3ccccc3n2)cc1 | inconclusive [inhibitor, single point] |  |
| CN1CCC(=O)N([C@H](CN=[N+]=[N-])c2ccccc2)CC1 | inconclusive [inhibitor, single point] |  |
| O=C(Nc1ccc(F)cc1F)c1ccc2nc(N3CCOCC3)sc2c1 | inconclusive [inhibitor, partial curve] |  |
| N/C(=N\O)c1ccc(NC(=O)c2cccs2)cc1 | inconclusive [inhibitor, single point] |  |
| Cc1nn(C)c(C(=O)Sc2ccccc2)c1[N+](=O)[O-] | inconclusive [inhibitor, single point] |  |
| C/C(=N/NC(N)=S)c1ccc(Br)s1 | active: 5.01 µM |  |
| O=C(CSc1ccc(Cl)cc1)NC(=O)NCc1ccco1 |  | inactive: 0.662% |
| CC(C)CNS(=O)(=O)c1cc(C(=O)OCC(=O)c2ccc3c(c2)OCCO3)c(Cl)cc1Cl |  | inactive: 10.8% |
| Cc1ccccc1NC(=O)c1cccc(N2C(=O)C3CCCCC3C2=O)c1 (stereo unspecified) |  | inactive: 10.7% |
| Cc1ccc(C(=O)Nc2nc3ccc(S(C)(=O)=O)cc3s2)s1 | inconclusive [inhibitor, partial curve] |  |
| CCN1CCN(c2ncnc3c2cnn3-c2ccccc2)CC1 |  | inactive: 10.5% |
| CC1CN(S(=O)(=O)c2cccc(C(=O)OC/C(O)=C(\C#N)c3nc4ccccc4[nH]3)c2)CC(C)O1 (stereo unspecified) | inconclusive [inhibitor, single point] |  |
| CNC(=O)c1nnsc1S(=O)c1ccc(Cl)cc1 (stereo unspecified) | active: 5.01 µM |  |
| Cc1cc(=O)c2cc(Br)ccc2n1CC(=O)NCc1ccccc1 | inconclusive [inhibitor, single point] |  |
| CC(=O)C1=C(C)NC(SCC(=O)c2cc(Cl)ccc2Cl)=C(C#N)C1c1ccco1 (stereo unspecified) | active: 3.55 µM |  |
| Cc1ccc(OCCn2cc(/C=C(\C#N)C(=O)NCC3CCCO3)c3ccccc32)cc1 (stereo unspecified) |  | inactive: -6.07% |
| CNC(=O)/C(C#N)=C/c1ccc(-c2ccc(OC)cc2[N+](=O)[O-])o1 | inconclusive [inhibitor, single point] |  |
| O=C(Nc1nnc(SCc2ccccc2F)s1)c1ccco1 | inconclusive [activator, partial curve] |  |
| O=C(O)CCC(=O)Nc1sc2c(c1C(=O)Nc1cccc3ccccc13)CCCCC2 |  | inactive: -5.42% |
| CC1(c2ccccc2)CC(C)(C)N2C(=O)Cc3cccc1c32 (stereo unspecified) |  | inactive: -6.61% |

| Structure (SMILES) | Potency | activity, negative = inhibition |
| --- | --- | --- |
| O=c1cnc2cnc(Nc3ccccc3)nc2n1C[C@H]1CCCO1 | inconclusive [inhibitor, single point] |  |
| Cc1ccc(/C=N/NC(=O)c2ccc3c(c2)OCCO3)s1 | inconclusive [inhibitor, partial curve, poor fit] |  |
| O=C(c1ccc(-c2ccc([N+](=O)[O-])cc2Cl)o1)N1CCOCC1 | inconclusive [activator, single point] |  |
| CCOc1c(Cl)cc(C(=O)Nc2ccccc2C(=O)O)cc1Cl | inconclusive [inhibitor, single point] |  |
| Cc1ccc(/C=N/n2c(C3CCCCC3)n[nH]c2=S)cc1 | active: 7.08 µM |  |
| COc1cc(CNn2cn[nH]c2=S)cc(Cl)c1OCc1ccccc1 | inconclusive [inhibitor, partial curve] |  |
| Cc1ccc(NC2=CC(=O)CC(c3ccc(Cl)cc3)C2)cc1 (stereo unspecified) | inconclusive [activator, single point] |  |
| Cc1cccc(C)c1NC(=S)N=Nc1c(O)n(C)c2ccc(S(=O)(=O)N3CCOCC3)cc12 | active: 4.47 µM |  |
| Cc1cccc(NC(=S)N=Nc2c(O)[nH]c3ccccc23)c1 | active: 3.55 µM |  |
| C=CCOc1c(Br)cc(CNn2c(C)n[nH]c2=S)cc1OC | inconclusive [inhibitor, single point] |  |
| CCCCC(=O)NNC(=S)NC(=O)c1cccc([N+](=O)[O-])c1 | active: 0.891 µM |  |
| CCOc1ccc(CN2CCN(CCCc3ccccc3)C(CCO)C2)cc1 (stereo unspecified) |  | inactive: 2.21% |
| Cc1onc(-c2ccccc2)c1C(=O)N/N=C/C(Br)=C/c1ccccc1 | inconclusive [inhibitor, single point] |  |
| Cc1cc(=O)n2nc(N3CCCC(C(=O)NCc4cccc(Br)c4)C3)sc2n1 (stereo unspecified) |  | inactive: -4.69% |
| O=C1C2C3CCC(O3)C2C(=O)N1c1cccc(O)c1 (stereo unspecified) |  | inactive: -3.04% |
| Nn1c(COc2cccc(Br)c2)nnc1SCC(=O)N1CCc2ccccc2C1 |  | inactive: -15.1% |
| Fc1ccccc1NC(=S)NCc1ccccc1 | inconclusive [inhibitor, single point] |  |
| O=Nc1c(-c2c(O)[nH]c3cc(Br)ccc23)[nH]c2ccccc12 | inconclusive [inhibitor, partial curve] |  |
| CNC(=S)NNC(=O)CCn1nc(C)c(Br)c1C | active: 3.98 µM |  |
| C[C@H](NC(=O)c1nc[nH]c1C(=O)NC1CCN(C(=O)OC(C)(C)C)CC1)C(=O)OCc1ccccc1 | inconclusive [inhibitor, single point] |  |
| Cn1c(=O)c(C(=O)NCC2CCCO2)c(O)c2ccccc21 (stereo unspecified) | inconclusive [activator, full curve, poor fit] |  |
| CN(C)S(=O)(=O)Oc1cccc(C(=O)Nc2ccc([N+](=O)[O-])cc2)c1 |  | inactive: 5.17% |
| C/C(=N/Oc1nc(C)cc(C)n1)c1ccc(Br)cc1 | inconclusive [inhibitor, single point] |  |
| O=C(NC(=S)Nc1ccc2c(c1)OCO2)c1ccc(Cl)cc1 | active: 5.62 µM |  |
| CCOC(=O)c1sc(N2N=C(C)/C(=C\c3ccc(OCC(=O)OC)cc3)C2=O)nc1C | inconclusive [inhibitor, single point] |  |
| Cc1ccc(-c2n[nH]c(=S)n2/N=C/C=C/c2ccccc2[N+](=O)[O-])cc1 |  | inactive: -24.3% |

| Structure (SMILES) | Potency | activity, negative = inhibition |
| --- | --- | --- |
| O=C1c2ccccc2-n2c1nc1ccccc1c2=O | inactive |  |
| O=C1CN(C(=O)Cn2ncc(Cl)c(Cl)c2=O)c2ccccc2N1 | inconclusive [inhibitor, single point] |  |
| Nc1ccc2c(C(F)(F)F)cc(C(F)(F)F)nc2n1 |  | inactive: -3.43% |
| CC(C)NC(=O)c1ccccc1-c1ccccc1 |  | inactive: 3.34% |
| Clc1ccc(CSc2nc3ccncc3[nH]2)cc1 | inconclusive [inhibitor, single point] |  |
| CCCCCCCCOC(=O)/C=C/c1c(C)[nH]c(=O)[nH]c1=O | inconclusive [inhibitor, full curve, poor fit] |  |
| CC(=O)N(/N=C1/C(=O)Nc2ccccc21)c1ccccc1 | inconclusive [activator, single point] |  |
| CC(=O)c1cnc(Nc2ccc(C)cc2)s1 |  | inactive: 24.7% [at 10 µM] |
| Cc1ccc(CNc2ncnc3cc(Cl)ccc23)cc1 | inconclusive [inhibitor, partial curve, poor fit] |  |
| Cc1nc(C)c(C(=O)NCc2ccc(Cl)cc2)o1 | inconclusive [inhibitor, single point] |  |
| Cc1noc(C)c1C(=O)NCc1ccccc1F |  | inactive: 3.14% |
| OC12CCCCC1C(c1ccc3c(c1)OCO3)N(Cc1ccccc1F)CC2 (stereo unspecified) | inconclusive [inhibitor, single point] |  |
| CC1(C)C(O)=C(c2nc3ccccc3[nH]2)C(=N)N1c1ccccc1 | active: 11.2 µM |  |
| CN(C)c1ccc(NC(=O)CSc2nnc(C3CCCCC3)n2N)cc1 | inconclusive [inhibitor, single point] |  |
| O=C(N/N=C/c1cn(-c2ccccc2)nc1-c1ccc(F)cc1)c1ccc2c(c1)OCO2 | inconclusive [inhibitor, partial curve] |  |
| Cc1ccc(NC(=S)N2CCCC2)cc1Cl | inconclusive [inhibitor, single point] |  |
| O=C(CN1CCCc2ccccc21)N/N=C/c1c(O)ccc2ccccc12 | active: 0.794 µM |  |
| CCC(=O)NC(Cc1ccccc1)c1ccc2c(c1)OCCCO2 (stereo unspecified) |  | inactive: 6.36% |
| COc1cccc(NC(=O)C/C(C)=N/NC(=O)c2ccccc2Cl)c1 |  | inactive: 4.53% |
| CCOC(=O)C1CCN(C(=S)NC(=O)c2cccs2)CC1 | active: 4.47 µM |  |
| Cc1cccc(C)c1NC(=O)C(Cl)C(=O)c1ccccc1 (stereo unspecified) | active: 22.4 µM |  |
| CCOC(=O)c1c(NC(=O)CSc2nc3ccccc3o2)sc(C(C)=O)c1C | inconclusive [inhibitor, single point] |  |
| Cc1ccc(SCc2nc3ccccc3n2CC(=O)Nc2ccc(Cl)cc2)cc1 | inconclusive [inhibitor, single point] |  |
| COc1cccc2c(=O)cc(C)n(CC(=O)Nc3ccccc3C)c12 | inconclusive [inhibitor, single point] |  |
